Lines with a small IC50 respond at low doses; fits outside the tested doses are given as limits. AUC is the area under the same curve over the 256-fold range up to the top dose, as a fraction; the more sensitive the line, the further below 1. Any top dose called inferred was derived from the fitted curves, not read from the paper. For some assays here: An entry number marks a drug with two screens in the source, which often give different values.
Columns and labels:
AICAR = compound: NC(=O)c1ncn([C@@H]2O[C@H](CO)[C@@H](O)[C@H]2O)c1N [AICAR]; experiment: Viability of human cancer cell lines after 72 h of drug (GDSC screen); details: top dose 2000 µM; top dose inferred
Experimental: (§1)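 Human cancer cell lines in 384-well plates, medium with 10% serum, drug for 72 h over a 256-fold dose range (nine 2-fold or five 4-fold steps up to the top dose). Adherent lines were fixed and stained with the nucleic acid dye Syto60, suspension lines read with resazurin; signal relative to control wells, capped at 0 and 100%. One two-parameter sigmoid per drug and line, fitted in a mixed model over all curves with the slope shared within a line.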

AKT inhibitor VIII = compound: O=c1[nH]c2ccccc2n1C1CCN(Cc2ccc(-c3[nH]c4cc5ncnc5cc4nc3-c3ccccc3)cc2)CC1 [AKT inhibitor VIII]; experiment: as above; details: top dose inferred
Experimental: as §1

[1] = top dose 2.56 µM, screen: GDSC drug entry 171
[2] = top dose 10.24 µM, screen: GDSC drug entry 228

Cell Line	AUC (AICAR)	IC50 (AICAR) [µM]	AUC (AKT inhibitor VIII; [1])	IC50 (AKT inhibitor VIII; [1]) [µM]	AUC (AKT inhibitor VIII; [2])	IC50 (AKT inhibitor VIII; [2]) [µM]
UMC-11 (lung carcinoid, adherent)	0.885	1780	0.991	> 2.56	0.896	> 10.2
SNU-C5 (large intestine, adherent)	0.867	> 2000	–	–	0.93	> 10.2
Ramos-2G6-4C10 (Burkitt lymphoma, suspension)	0.617	249	0.991	> 2.56	0.852	6.2
P12-ICHIKAWA (T-cell lymphoblastic leukaemia, suspension)	0.941	> 2000	0.978	> 2.56	0.429	0.428
YAPC (pancreas, adherent)	0.949	> 2000	0.97	> 2.56	0.949	> 10.2
OVCAR-5 (ovary, adherent)	0.929	> 2000	0.966	> 2.56	0.96	> 10.2
A253 (head and neck, adherent)	0.903	> 2000	0.922	> 2.56	0.937	> 10.2
NCI-H841 (small cell lung carcinoma, adherent)	0.987	> 2000	0.985	> 2.56	0.873	9.95
A2780 (ovary, semi-adherent)	0.874	> 2000	0.955	> 2.56	0.768	3.96
NCI-H1648 (lung adenocarcinoma, adherent)	0.852	1690	0.894	> 2.56	0.826	6.73
RH-41 (rhabdomyosarcoma, adherent)	0.887	1590	0.973	> 2.56	0.989	> 10.2
LXF-289 (lung adenocarcinoma, adherent)	0.842	1370	0.841	1.74	0.796	4.69
CW-2 (large intestine, adherent)	0.924	> 2000	0.989	> 2.56	0.842	8.02
COLO-824 (breast, adherent)	0.891	> 2000	0.977	> 2.56	0.856	8.49
KARPAS-422 (B-cell lymphoma, suspension)	0.774	775	0.952	> 2.56	0.839	6.82
COLO-320-HSR (large intestine, suspension)	0.633	276	0.99	> 2.56	0.814	4.68
HT-1376 (bladder, adherent)	0.839	1720	0.969	> 2.56	0.985	> 10.2
RO82-W-1 (thyroid, adherent)	0.922	> 2000	0.941	> 2.56	0.983	> 10.2
HMV-II (melanoma, adherent)	0.968	> 2000	0.978	> 2.56	0.879	> 10.2
OCI-LY-19 (B-cell lymphoma, suspension)	0.727	519	0.946	> 2.56	0.714	2.44
NCI-H1568 (lung adenocarcinoma, adherent)	0.809	1370	0.948	> 2.56	0.937	> 10.2
L-428 (Hodgkin lymphoma, suspension)	0.897	1970	0.985	> 2.56	0.919	> 10.2
SNU-423 (liver, adherent)	0.836	1660	0.875	> 2.56	0.784	5.14
RKO (large intestine, adherent)	0.924	> 2000	0.948	> 2.56	0.894	> 10.2
TGW (neuroblastoma, adherent)	0.719	470	0.991	> 2.56	0.877	7.79

Cell Line	AUC (AICAR)	IC50 (AICAR) [µM]	AUC (AKT inhibitor VIII; [1])	IC50 (AKT inhibitor VIII; [1]) [µM]	AUC (AKT inhibitor VIII; [2])	IC50 (AKT inhibitor VIII; [2]) [µM]
23132-87 (stomach, adherent)	0.939	> 2000	0.704	0.616	0.721	2.77
LCLC-97TM1 (large cell lung carcinoma, adherent)	0.803	1100	0.813	1.55	0.715	2.77
HOP-62 (lung adenocarcinoma, adherent)	0.896	> 2000	0.958	> 2.56	0.867	9.22
NCI-H520 (lung squamous cell carcinoma, adherent)	0.792	938	0.802	1.31	0.55	0.883
SK-N-SH (neuroblastoma, adherent)	0.943	> 2000	0.974	> 2.56	0.923	> 10.2
NOS-1 (osteosarcoma, adherent)	0.7	525	0.775	1.25	0.537	0.829
HCC1937 (breast, adherent)	0.872	> 2000	0.908	> 2.56	0.811	6.48
HT-29 (large intestine, adherent)	0.893	> 2000	0.865	2.26	0.948	> 10.2
TE-15 (oesophagus, suspension)	0.814	1270	0.91	> 2.56	0.837	8.14
ESO26 (oesophagus, adherent)	0.745	598	–	–	0.725	2.66
NCI-H2405 (lung adenocarcinoma, adherent)	0.967	> 2000	0.94	> 2.56	0.937	> 10.2
KARPAS-299 (anaplastic large cell lymphoma, suspension)	0.804	809	0.992	> 2.56	0.975	> 10.2
D-263MG (glioma, adherent)	0.949	> 2000	0.978	> 2.56	0.983	> 10.2
SW756 (cervix, adherent)	0.956	> 2000	0.982	> 2.56	0.985	> 10.2
HuH-7 (liver, adherent)	0.935	> 2000	0.936	> 2.56	0.977	> 10.2
BxPC-3 (pancreas, adherent)	0.824	1380	0.79	1.3	0.949	> 10.2
AMO-1 (haematopoietic neoplasm, suspension)	0.753	585	0.972	> 2.56	0.827	5.09
MRK-nu-1 (breast, suspension)	0.882	1820	0.99	> 2.56	0.974	> 10.2
NCI-H1092 (small cell lung carcinoma, suspension)	0.89	> 2000	0.939	> 2.56	0.93	> 10.2
RKN (ovary, adherent)	0.986	> 2000	0.946	> 2.56	0.919	> 10.2
TE-1 (oesophagus, adherent)	0.388	56.6	0.957	> 2.56	0.903	> 10.2
AsPC-1 (pancreas, adherent)	0.796	1870	0.944	> 2.56	0.777	7.72
NB14 (neuroblastoma, adherent)	0.937	> 2000	0.976	> 2.56	0.962	> 10.2
NCI-H460 (large cell lung carcinoma, adherent)	0.919	> 2000	0.884	2.31	0.98	> 10.2
COLO-684 (endometrium, suspension)	0.761	795	0.932	> 2.56	0.577	1.06

Cell Line	AUC (AICAR)	IC50 (AICAR) [µM]	AUC (AKT inhibitor VIII; [1])	IC50 (AKT inhibitor VIII; [1]) [µM]	AUC (AKT inhibitor VIII; [2])	IC50 (AKT inhibitor VIII; [2]) [µM]
FLO-1 (oesophagus, adherent)	0.963	> 2000	–	–	0.889	> 10.2
NCI-H650 (lung adenocarcinoma, adherent)	0.913	> 2000	0.975	> 2.56	0.918	> 10.2
JIMT-1 (breast, adherent)	0.761	765	0.944	> 2.56	0.932	> 10.2
LC4-1 (lymphoblastic leukaemia, suspension)	0.816	1260	0.88	> 2.56	0.431	0.406
NCI-H596 (lung adenocarcinoma, adherent)	0.896	> 2000	0.928	> 2.56	0.842	> 10.2
PEO1 (ovary, adherent)	0.903	> 2000	–	–	0.936	> 10.2
Caov-4 (ovary, adherent)	0.935	> 2000	0.97	> 2.56	0.848	> 10.2
Mo-T (hairy cell leukaemia, suspension)	0.704	476	0.987	> 2.56	0.691	2.22
THP-1 (acute myeloid leukaemia, suspension)	0.911	> 2000	0.99	> 2.56	0.681	1.93
NCI-H2342 (lung adenocarcinoma, adherent)	0.899	> 2000	0.729	0.773	0.971	> 10.2
TE-5 (oesophagus, adherent)	0.937	> 2000	0.883	> 2.56	0.893	> 10.2
KARPAS-45 (lymphoblastic leukaemia, suspension)	0.96	> 2000	0.974	> 2.56	0.404	0.367
NCI-H661 (large cell lung carcinoma, adherent)	0.883	> 2000	0.893	> 2.56	0.908	> 10.2
WIL2-NS (lymphoid neoplasm, suspension)	0.954	> 2000	0.981	> 2.56	0.607	1.19
OVK-18 (ovary, adherent)	0.869	> 2000	–	–	0.797	5.44
NCI-H2141 (small cell lung carcinoma, suspension)	0.946	> 2000	0.989	> 2.56	0.853	7.68
M059J (glioma, adherent)	0.892	> 2000	0.955	> 2.56	0.94	> 10.2
KYSE-450 (oesophagus, adherent)	0.865	1610	0.972	> 2.56	0.872	8.8
NCI-H1781 (lung adenocarcinoma, adherent)	0.954	> 2000	0.96	> 2.56	0.831	6.49
MFM-223 (breast, adherent)	0.591	221	0.989	> 2.56	0.879	> 10.2
CAL-78 (chondrosarcoma, adherent)	0.913	> 2000	0.971	> 2.56	0.986	> 10.2
PL-21 (acute myeloid leukaemia, suspension)	0.763	835	0.905	> 2.56	0.509	0.681
TK (B-cell lymphoma, suspension)	0.711	464	0.953	> 2.56	0.753	3.15
MZ1-PC (pancreas, adherent)	0.881	> 2000	0.933	> 2.56	0.828	8.52
NCI-H446 (small cell lung carcinoma, semi-adherent)	0.945	> 2000	0.984	> 2.56	0.859	9.51

Source: the supplement of paper PMC4967469
